The whole screen tested about 48,000 compounds, of which about 120 (0.25%) were called active. Inconclusive results (about 4%) are left out. Calls follow the shape of the dose curve; as a rule, active = well fitted activation curve with a large enough effect; inconclusive = small, poorly fitted or top-dose-only effect, or another doubt; inactive = no such curve, though single readings can be large or run the other way. Some of the results follow.
Assay: Primary qHTS for Identification of Small Molecule Activators of Huntingtin-Antisense Promoter Activity; also: nearly all actives have a fitted effect of over 55% in size
Details: HEK293 HTT-AS promoter firefly luciferase reporter, 24 h; series mostly up to 57.5 µM; activity change, positive = activation: at the top concentration
Outline: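 Luminescence was read after Dual-Glo reagent and a 10 min room-temperature incubation. Values were normalized to vehicle (0% activity) and zero RLU (-100% activity). Reporter HEK293 cells had been exposed to compounds (up to 57.5 uM final) for 24 h.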

Activity change, positive = activation, inactive:
COc1ccc(C(CNC(=O)Cc2ccc(Cl)cc2)N2CCOCC2)cc1 (centres undefined) -7.66%
Cc1cccc(CC(=O)NC2CC(=O)N(c3ccccc3)C2)c1 (centres undefined) -10.3%
Cc1ccc(C2=CC(c3ccc(Cl)cc3)n3nc(-c4ccc(C)cc4)nc3N2)cc1 (centres undefined) -32.7%
CC(C)c1ccc(C2c3c(oc4ccc(Cl)cc4c3=O)C(=O)N2CCCN2CCOCC2)cc1 (centres undefined) -25.6%
COc1cc(NC(=O)CN2C(=O)C(c3ccc(Cl)cc3)=NC23CCCCC3)cc(OC)c1 -59.9%
Cc1cc2c(cc3c(SCc4cccc(F)c4)nnc(C)n32)o1 10.5%
Cc1cccc(C(=O)N2CCC(N3CCN(Cc4ccc(F)cc4)C(=O)C3=O)CC2)c1 6.47% [at 11.5 µM, percent change from vehicle, -100% = no light]
COC(=O)c1ccc(Cl)cc1NC(=O)NC(C)c1c(-n2cccc2)sc(C)c1C (centres undefined) -21.4%
O=c1c2c3c(sc2n(Cc2ccccc2F)c(=O)n1-c1ccc(Cl)cc1)CCCC3 -7.23%
COc1ccc(NC(=O)CCc2nc3cccnc3n2-c2ccccc2)cc1Cl -24.6%
COCCn1c(SCC(=O)Nc2cccc(C)c2C)nc2c(oc3ccccc32)c1=O -0.859%
Cc1cc(-c2ccc(S(=O)(=O)Nc3cc(Cl)ccc3C)s2)on1 -43.3%
COc1ccc(CCNC(=O)c2cc3c(-c4ccc(OC)c(OC)c4)nn(C)c3s2)cc1OC -45.6%
Cc1ccc(Cn2c(CO)cnc2SCc2cccc(F)c2)cc1 7.18%
Cc1oc2ncn(C)c(=O)c2c1C(=O)N(Cc1ccccc1)C(C)C -4.61%
Cc1ccc(Cl)cc1N1CCN(C(=O)c2ccc(CS(=O)(=O)c3ccc(Br)cc3)o2)CC1 -53.4%
CCOC(=O)c1c(C)[nH]c(CCC(=O)NCc2cccc(OC)c2)c1C -10.8%
Cc1ccc(Cl)cc1N1CCN(C(=O)CCn2c(=O)c3cccn3c3cccnc32)CC1 -12.5%
CSCCC(NS(=O)(=O)c1ccc2c(c1)oc(=O)n2C)C(=O)Nc1ccc(F)c(Cl)c1 (centres undefined) -10.8%
Cc1cccc(NC(=O)c2cnc3sc(N4CCCC4)nn3c2=O)c1C -2.17%
COc1ccc(NC(=O)c2c(NCc3cccc(F)c3)sc3c2CCC3)c(OC)c1 -14.8%
COc1ccc(OC)c(CNC(=O)c2c(C)oc3ncn(CC(C)C)c(=O)c23)c1 -16.4%
CCCCOc1ccc(C2=NC(c3cccs3)=Nc3ccc(OC)cc3N2)cc1 -9.82%
COc1cccc2sc(N(Cc3cccnc3)C(=O)c3ccco3)nc12 -0.777%
Cc1nn(C)c(C)c1S(=O)(=O)N(CC(=O)NCCc1ccc(Cl)cc1)c1ccc(C(C)C)cc1 -14.8%
O=C(NCC(c1cccnc1)N1CCN(c2ccccc2F)CC1)c1ccc(F)cc1 (centres undefined) -36.6%
COc1cc2c(cc1OC)C(=O)CC2 4.11%
COc1ccc(C)cc1NC(=O)C(=O)NCCc1sc(-c2cccc(C)c2)nc1C 1.15%
Cc1cc(C)cc(NC(=O)Cc2csc(COc3cccc(C)c3)n2)c1 -9.25%
Cc1ccccc1C(=O)Nc1ccc(S(=O)(=O)N2CCC(c3nc4ccccc4s3)CC2)cc1 -36.2%
Cc1c(C)c2c(cc(C)c3c(-c4ccc(Br)cc4)coc32)oc1=O -13.4%
CCOC(=O)c1cccc(NC(=O)CCn2c(=O)oc3ccccc32)c1 -13.3%
CCC(Oc1ccccc1)C(=O)Nc1cccc(OCc2cc(=O)n3cccc(C)c3n2)c1 (centres undefined) -14.8%
Cc1ccc(CSc2nnc([C@@H](N)C(C)C)o2)cc1 -3.48%
CC(=O)c1ccc(NC(=O)Cn2c(=O)cc(C)c3c(C)nn(-c4cccc(F)c4)c32)cc1 -12.5%
CCOC(=O)c1c(C)[nH]c(C)c1S(=O)(=O)NCC(=O)Nc1cccc(SC)c1 2.91%
CCC1CCc2nc3sc(C(=O)Nc4cccc(F)c4)c(N)c3cc2C1 (centres undefined) 2.9%
COc1cccc(NC(=O)CSc2nc(C)c(Cc3ccccc3)c(=O)[nH]2)c1 -21.2%
Cc1ccc(C2N=C(N)Nc3nc4ccccc4n32)cc1 (centres undefined) -8.74%
CCN(CC)c1ccc(C(=O)NCc2nc3cccnc3n2Cc2ccc(C)cc2)cc1 -14.4%
Cc1cccc(-c2nc3c4c(-c5ccccc5)c(-c5ccccc5)oc4ncn3n2)c1 -2.23%
Cc1cccc(NC(=O)Cn2cc(S(=O)(=O)N3CCCC3)c(S(=O)(=O)N3CCCC3)c2)c1C 10.9% [at 11.5 µM, percent change from vehicle, -100% = no light]
CC1=C(C/C=C(\C)CCC[C@H](C)CCC[C@H](C)CCCC(C)C)C(=O)c2ccccc2C1=O 10.3%
CC(=O)N1c2ccc(S(=O)(=O)N3CCC(C(=O)Nc4cccc(Cl)c4C)CC3)cc2CC1C (centres undefined) -37.8%
Cc1cccc(Cn2cc(S(=O)(=O)c3ccccc3)c(=O)c3cc(F)c(N4CCOCC4)cc32)c1 -22.9%
Cc1cccc(C)c1NC(=O)C1CCCN1S(=O)(=O)c1ccccc1 (centres undefined) -3.58%
Cc1ccc2c(CC(=O)Nc3ccc(S(=O)(=O)N4CCCCC4C)cc3)coc2c1C (centres undefined) -21.5%
CCc1ccc2ncc3c(-c4ccc(F)cc4)nn(CC(=O)NC4CCCCC4)c3c2c1 -1.94%
O=C(OCCOCCO)c1ccccc1Nc1cccc(C(F)(F)F)c1 -23.4%
CCOC(=O)Cn1c(=O)n(-c2cccc(Cl)c2)c2nc(-c3ccccc3Cl)nc(C(N)=O)c21 -30.4%
CN(C)c1ccc(CNC(=O)Cc2ccc(NC(=O)N3CCCCc4ccccc43)cc2)cc1 5.27%
COc1ccc(N2CCN(CCCNC(=O)c3nnc(Cc4ccc(F)cc4)o3)CC2)cc1 -29.8%
Cc1ccccc1OC(=O)c1nc(SCc2ccccc2F)ncc1Cl 5.96%
CCCNC(=O)C1CCC(Cn2c(=O)c3sccc3n(CC(=O)NCc3ccccc3)c2=O)CC1 (centres undefined) -9%
CCOC(=O)c1ccc(NC(=O)CCCc2nc(-c3cc(OC)c(OC)c(OC)c3)no2)cc1 -60%
CCOc1ccc(S(=O)(=O)N(CC(=O)Nc2ccc(OC)cc2OC)c2ccccc2)cc1 -3.62%
Cc1nn(CCCC(=O)NCc2ccccc2Br)c(=O)c2c1sc1ccccc12 -1.05%
O=C(NCc1ccccc1F)C1CCCN(C(=O)N2CCOc3ccccc32)C1 (centres undefined) -25.9%
O=C(CN1C=NS(=O)(=O)c2ccccc21)Nc1ccccc1F -8.64%

Source: PubChem BioAssay AID1508624 (National Center for Advancing Translational Sciences (NCATS), 2021)
